{"sequences": {"note": "Protein sequences, listed by entry. Tags and fused reporters are not part of them. Lines headed by an entry give the natural chain unless they say otherwise; changes in a name come on top.", "UniProt Q9UKX5": "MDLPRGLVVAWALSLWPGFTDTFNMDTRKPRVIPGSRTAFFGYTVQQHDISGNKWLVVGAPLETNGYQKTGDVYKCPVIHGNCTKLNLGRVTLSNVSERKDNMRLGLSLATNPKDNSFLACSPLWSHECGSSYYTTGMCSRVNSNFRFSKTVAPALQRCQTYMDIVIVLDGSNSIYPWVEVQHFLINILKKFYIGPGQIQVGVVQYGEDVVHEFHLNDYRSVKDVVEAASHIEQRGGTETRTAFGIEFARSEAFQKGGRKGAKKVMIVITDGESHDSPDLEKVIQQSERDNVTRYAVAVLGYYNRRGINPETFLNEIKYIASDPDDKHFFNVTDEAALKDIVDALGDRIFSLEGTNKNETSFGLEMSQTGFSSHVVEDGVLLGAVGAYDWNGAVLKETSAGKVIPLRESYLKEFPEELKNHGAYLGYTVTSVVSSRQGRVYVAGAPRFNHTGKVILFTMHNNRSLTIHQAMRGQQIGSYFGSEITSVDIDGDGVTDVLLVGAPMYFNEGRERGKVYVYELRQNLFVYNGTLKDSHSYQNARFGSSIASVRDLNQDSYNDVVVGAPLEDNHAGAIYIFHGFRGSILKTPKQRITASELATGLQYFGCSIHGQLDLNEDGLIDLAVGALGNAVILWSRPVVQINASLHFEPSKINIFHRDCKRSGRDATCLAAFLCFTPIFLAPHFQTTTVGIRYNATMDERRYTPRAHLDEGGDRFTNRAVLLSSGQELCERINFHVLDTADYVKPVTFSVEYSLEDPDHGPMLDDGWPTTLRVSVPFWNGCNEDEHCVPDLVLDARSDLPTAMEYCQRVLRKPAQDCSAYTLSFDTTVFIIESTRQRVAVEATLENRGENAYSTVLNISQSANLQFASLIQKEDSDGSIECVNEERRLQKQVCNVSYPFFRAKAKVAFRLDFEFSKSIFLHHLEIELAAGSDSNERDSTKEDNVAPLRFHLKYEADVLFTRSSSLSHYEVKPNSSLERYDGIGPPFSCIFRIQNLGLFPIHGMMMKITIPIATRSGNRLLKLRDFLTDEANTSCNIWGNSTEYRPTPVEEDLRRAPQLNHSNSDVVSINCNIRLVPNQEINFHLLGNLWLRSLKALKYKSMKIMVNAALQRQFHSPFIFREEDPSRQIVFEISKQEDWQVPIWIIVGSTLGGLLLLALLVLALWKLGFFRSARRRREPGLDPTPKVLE", "UniProt P17301": "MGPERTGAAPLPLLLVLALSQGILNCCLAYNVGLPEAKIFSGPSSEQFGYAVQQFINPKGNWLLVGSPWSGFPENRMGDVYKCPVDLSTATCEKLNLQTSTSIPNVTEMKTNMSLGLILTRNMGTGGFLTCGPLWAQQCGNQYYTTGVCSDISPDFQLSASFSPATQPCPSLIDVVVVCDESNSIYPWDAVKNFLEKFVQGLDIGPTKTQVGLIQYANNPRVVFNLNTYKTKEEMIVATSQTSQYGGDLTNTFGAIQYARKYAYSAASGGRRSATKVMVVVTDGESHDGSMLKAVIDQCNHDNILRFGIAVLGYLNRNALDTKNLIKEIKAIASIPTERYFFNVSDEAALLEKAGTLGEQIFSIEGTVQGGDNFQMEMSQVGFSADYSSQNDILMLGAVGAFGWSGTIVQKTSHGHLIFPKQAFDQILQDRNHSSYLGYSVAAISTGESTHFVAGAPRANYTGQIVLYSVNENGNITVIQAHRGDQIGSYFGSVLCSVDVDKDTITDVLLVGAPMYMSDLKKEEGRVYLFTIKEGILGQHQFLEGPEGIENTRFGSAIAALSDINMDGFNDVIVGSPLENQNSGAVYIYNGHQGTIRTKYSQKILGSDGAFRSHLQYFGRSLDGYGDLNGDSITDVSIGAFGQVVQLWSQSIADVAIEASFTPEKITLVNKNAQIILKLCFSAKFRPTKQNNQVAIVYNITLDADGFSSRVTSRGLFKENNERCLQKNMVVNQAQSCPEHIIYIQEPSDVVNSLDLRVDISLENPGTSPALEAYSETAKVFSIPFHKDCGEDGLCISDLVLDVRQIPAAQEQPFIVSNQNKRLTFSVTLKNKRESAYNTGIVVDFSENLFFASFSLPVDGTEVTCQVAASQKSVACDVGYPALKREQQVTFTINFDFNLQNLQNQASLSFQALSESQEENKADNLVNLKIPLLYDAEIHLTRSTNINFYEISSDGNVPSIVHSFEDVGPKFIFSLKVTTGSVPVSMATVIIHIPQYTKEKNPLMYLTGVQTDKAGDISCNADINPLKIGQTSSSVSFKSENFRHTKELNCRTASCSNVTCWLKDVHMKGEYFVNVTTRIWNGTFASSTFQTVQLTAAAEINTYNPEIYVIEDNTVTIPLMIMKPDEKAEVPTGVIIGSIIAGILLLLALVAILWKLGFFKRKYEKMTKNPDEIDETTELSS", "UniProt P56199": "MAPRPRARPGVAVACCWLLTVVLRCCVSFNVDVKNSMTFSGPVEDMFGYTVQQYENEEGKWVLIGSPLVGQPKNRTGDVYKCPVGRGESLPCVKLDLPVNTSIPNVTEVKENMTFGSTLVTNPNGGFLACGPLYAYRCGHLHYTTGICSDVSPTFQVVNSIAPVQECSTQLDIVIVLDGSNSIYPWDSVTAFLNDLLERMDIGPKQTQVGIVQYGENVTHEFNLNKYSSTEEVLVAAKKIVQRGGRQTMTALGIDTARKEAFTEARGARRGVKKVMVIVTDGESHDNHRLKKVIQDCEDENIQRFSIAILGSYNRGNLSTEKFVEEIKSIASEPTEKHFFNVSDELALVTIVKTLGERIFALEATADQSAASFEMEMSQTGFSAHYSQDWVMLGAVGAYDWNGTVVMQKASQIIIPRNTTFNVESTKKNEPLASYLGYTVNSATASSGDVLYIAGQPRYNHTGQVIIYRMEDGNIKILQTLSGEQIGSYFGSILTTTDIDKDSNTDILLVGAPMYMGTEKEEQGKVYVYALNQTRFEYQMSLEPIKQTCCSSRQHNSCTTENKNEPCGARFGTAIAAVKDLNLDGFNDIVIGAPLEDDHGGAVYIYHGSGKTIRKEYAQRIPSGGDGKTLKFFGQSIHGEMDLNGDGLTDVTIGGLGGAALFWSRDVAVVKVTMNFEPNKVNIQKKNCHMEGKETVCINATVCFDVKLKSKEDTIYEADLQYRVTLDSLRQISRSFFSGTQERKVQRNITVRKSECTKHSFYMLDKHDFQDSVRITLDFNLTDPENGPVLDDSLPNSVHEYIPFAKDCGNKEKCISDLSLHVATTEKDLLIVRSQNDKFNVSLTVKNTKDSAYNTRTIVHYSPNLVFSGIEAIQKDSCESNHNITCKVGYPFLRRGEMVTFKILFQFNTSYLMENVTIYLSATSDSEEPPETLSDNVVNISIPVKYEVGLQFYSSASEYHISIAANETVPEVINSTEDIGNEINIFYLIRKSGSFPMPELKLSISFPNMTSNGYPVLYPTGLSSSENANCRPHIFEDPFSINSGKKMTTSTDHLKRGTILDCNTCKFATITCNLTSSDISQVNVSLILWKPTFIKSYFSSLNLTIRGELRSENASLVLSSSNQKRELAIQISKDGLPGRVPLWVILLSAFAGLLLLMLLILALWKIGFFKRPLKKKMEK", "UniProt O75578": "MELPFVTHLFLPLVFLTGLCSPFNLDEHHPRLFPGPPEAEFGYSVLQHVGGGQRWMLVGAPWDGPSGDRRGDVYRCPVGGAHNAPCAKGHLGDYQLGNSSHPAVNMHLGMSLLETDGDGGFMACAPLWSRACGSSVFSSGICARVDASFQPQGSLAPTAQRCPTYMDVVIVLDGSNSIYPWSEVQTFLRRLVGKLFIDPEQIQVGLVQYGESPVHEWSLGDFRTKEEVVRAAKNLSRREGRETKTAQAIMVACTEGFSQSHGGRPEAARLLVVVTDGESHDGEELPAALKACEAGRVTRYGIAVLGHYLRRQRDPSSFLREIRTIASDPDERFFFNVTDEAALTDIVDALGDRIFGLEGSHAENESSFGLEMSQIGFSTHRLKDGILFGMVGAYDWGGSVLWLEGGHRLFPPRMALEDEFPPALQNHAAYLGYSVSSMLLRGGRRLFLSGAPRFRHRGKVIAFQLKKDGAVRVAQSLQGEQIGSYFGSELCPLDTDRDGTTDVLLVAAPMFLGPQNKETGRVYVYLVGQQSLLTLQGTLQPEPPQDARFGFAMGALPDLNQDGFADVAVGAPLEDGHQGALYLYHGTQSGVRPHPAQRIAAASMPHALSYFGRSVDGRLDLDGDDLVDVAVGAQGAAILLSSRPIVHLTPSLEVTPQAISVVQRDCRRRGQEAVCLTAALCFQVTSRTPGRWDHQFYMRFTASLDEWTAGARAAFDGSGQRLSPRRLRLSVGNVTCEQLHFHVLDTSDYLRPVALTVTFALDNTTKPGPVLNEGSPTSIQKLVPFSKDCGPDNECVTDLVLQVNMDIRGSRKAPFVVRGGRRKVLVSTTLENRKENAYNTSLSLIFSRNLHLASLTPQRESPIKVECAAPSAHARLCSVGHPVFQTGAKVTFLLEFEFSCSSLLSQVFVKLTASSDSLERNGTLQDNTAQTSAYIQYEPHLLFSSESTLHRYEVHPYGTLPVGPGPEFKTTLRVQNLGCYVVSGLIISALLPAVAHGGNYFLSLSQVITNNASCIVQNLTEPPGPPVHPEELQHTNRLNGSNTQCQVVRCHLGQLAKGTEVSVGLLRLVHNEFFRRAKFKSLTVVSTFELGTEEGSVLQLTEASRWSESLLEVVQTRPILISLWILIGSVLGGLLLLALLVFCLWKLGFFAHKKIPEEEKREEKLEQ"}, "source": "paper PMC5380659", "about": "“Unique charge-dependent constraint on collagen recognition by integrin α10β1” (Matrix Biology, 2017)", "assay_in_all_cases": "cell adhesion to coated peptides (LDH read-out); peptide-coated 96-well plates; 5 × 10^4 integrin-transfected C2C12 cells per well in Tris-buffered saline with 5.5 mM glucose and 2 mM MgCl2, 20 °C, 60 min; adherent cells lysed and read with a lactate dehydrogenase kit; only the target purified", "key": {"[1]": {"biological_target": "short triple-helical peptide (THP) containing GRSGET (human)"}, "[2]": {"biological_target": "short triple-helical peptide (THP) containing GLKGEN (human)"}, "[3]": {"biological_target": "short triple-helical peptide (THP) containing GLSGER (human)"}}, "note": "Results are given in words; binding and its absence hold for the method and conditions named. Some results given as binding are weak or reduced against the parent protein; the word gives no strength."}
{"substance": "integrin α11β1 on C2C12-α11β1 cells (from UniProt Q9UKX5 23-1188; P09055 21-798) (receptor)", "values": [{"measurement": "binding", "setting": "[1]", "result": "binds"}]}
{"substance": "integrin α2β1 on C2C12-α2β1 cells (from UniProt P17301 30-1181; P09055 21-798) (receptor)", "values": [{"measurement": "binding", "setting": "[1]", "result": "binds"}]}
{"substance": "integrin α1β1 on C2C12-α1β1 cells (from UniProt P56199 29-1179; P09055 21-798) (receptor)", "values": [{"measurement": "binding", "setting": "[1]", "result": "binds"}]}
{"substance": "integrin α10β1 on C2C12-α10β1 cells (from UniProt O75578 23-1167; P09055 21-798) (receptor)", "values": [{"measurement": "binding", "setting": "[2]", "result": "binds"}, {"measurement": "binding", "setting": "[3]", "result": "binds"}, {"measurement": "binding", "setting": "[1]", "result": "no binding"}]}
